SMILES strings stand for the structures. In all, about 16,000 compounds went through this assay and about 120 (0.75%) were called active. Roughly 4% stayed inconclusive and do not appear here. Calls come from the whole dose curve; as a rule, active = well fitted inhibition curve with a large enough effect; inconclusive = small, poorly fitted or top-dose-only effect; inactive = no such curve, though single readings can be large or run the other way. The list shows a part of the results.

This is an account of results in PubChem BioAssay AID1645882 (National Center for Advancing Translational Sciences (NCATS), 2021).

The target in the assay is Rap guanine nucleotide exchange factor 3 (Homo sapiens) (UniProt O95398). In words: Validation qHTS for antagonist of cAMP-regulated guanine nucleotide exchange factor 3 (EPAC1).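 Note: plate controls were DMSO for no effect and ATA control for full effect; nearly all actives have a fitted effect of over 75% in size.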 Particulars: EPAC1 Rap1B-BODIPY-GDP exchange, fluorescence; series mostly up to 150 µM; activity change, negative = inhibition: at the top concentration. The method, boiled down: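 Nucleotide exchange followed as fluorescence loss when BODIPY-GDP leaves Rap1B (480 nm excitation, 540 nm emission), read at 5 min intervals over 30 min. Reaction: 100 nM EPAC1, 250 nM RAP1B-BODIPY-GDP, 50 uM GDP; ATA and DMSO define normalization.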
UniProt O95398, sequence (O95398 whole entry, looked up): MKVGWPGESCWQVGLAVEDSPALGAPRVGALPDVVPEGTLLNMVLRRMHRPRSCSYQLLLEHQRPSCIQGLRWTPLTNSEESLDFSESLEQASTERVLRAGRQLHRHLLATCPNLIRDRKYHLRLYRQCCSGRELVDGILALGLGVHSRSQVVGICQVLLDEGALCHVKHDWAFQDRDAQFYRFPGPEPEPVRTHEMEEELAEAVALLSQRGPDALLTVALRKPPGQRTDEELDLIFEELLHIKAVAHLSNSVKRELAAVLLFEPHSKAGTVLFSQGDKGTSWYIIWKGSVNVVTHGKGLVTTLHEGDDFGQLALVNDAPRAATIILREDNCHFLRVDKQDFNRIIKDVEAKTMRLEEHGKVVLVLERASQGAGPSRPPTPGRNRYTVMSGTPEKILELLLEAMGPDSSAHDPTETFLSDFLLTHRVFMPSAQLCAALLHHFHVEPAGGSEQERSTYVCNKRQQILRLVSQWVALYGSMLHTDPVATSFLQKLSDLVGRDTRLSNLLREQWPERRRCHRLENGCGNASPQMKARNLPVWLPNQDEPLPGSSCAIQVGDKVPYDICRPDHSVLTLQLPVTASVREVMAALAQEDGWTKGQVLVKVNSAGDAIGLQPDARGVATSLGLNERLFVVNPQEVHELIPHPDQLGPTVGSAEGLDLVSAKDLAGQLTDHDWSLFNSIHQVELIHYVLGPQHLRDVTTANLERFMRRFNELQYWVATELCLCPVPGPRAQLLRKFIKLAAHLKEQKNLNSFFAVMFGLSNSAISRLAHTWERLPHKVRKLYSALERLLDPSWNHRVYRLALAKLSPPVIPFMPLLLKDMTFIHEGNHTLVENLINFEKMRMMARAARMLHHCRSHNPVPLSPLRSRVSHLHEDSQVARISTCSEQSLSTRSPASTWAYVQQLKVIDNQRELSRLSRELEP
Background: In qHTS, concentration-response curves come from the screen itself.
As for `CNC(=O)[C@H]1O[C@@H](n2cnc3c(NCc4cccc(I)c4)ncnc32)[C@H](O)[C@@H]1O`, the activity change, negative = inhibition result is “inactive”.

For the compound `O=S1(=O)[C@H]2C[C@@H]3C=C[C@@]2(CN1Cc1ccc(Cl)cc1)O3`, the “activity change, negative = inhibition” value was inactive: 16.1%.

Take `Cc1cccc(CNc2nc(-c3cccc(NS(C)(=O)=O)c3)nc3ccccc23)c1`: the “activity change, negative = inhibition” value was inactive: 15%.

Consider `O=c1c(-c2ccc(F)c(F)c2)nc2cncnc2n1C1CC1`, for which the “activity change, negative = inhibition” value was inactive: 7.48%.

Take `C/C=C/C(=O)N(CC)c1ccccc1C`: the activity change, negative = inhibition entry was “inactive”.

Consider `CC(NC(=O)c1ccco1)c1nnc2n1CCN(Cc1ccc(N(C)C)cc1)CC2` (centres undefined), for which the “activity change, negative = inhibition” value was inactive: 14.1%.

Regarding `O=P(O)(O)C(Sc1ccc(Cl)cc1)P(=O)(O)O`, the “activity change, negative = inhibition” value was inactive: -14.4%.

`O=C1N=C(O)CN1/N=C\c1ccc(-c2ccc([N+](=O)[O-])cc2)o1`: the “activity change, negative = inhibition” value is inactive: -2.23%.

Consider `N#CCCn1c(=O)cnc2cnc(Oc3ccccc3)nc21`, for which the “activity change, negative = inhibition” value was inactive: 0.5%.

For `C=CCCN(Cc1ccccc1)S(=O)(=O)c1cc(Br)ccc1Br`, the “activity change, negative = inhibition” value is inactive: 16%.

On to `CC[C@H]1CN2CCc3cc(OC)c(OC)cc3[C@H]2C[C@@H]1C[C@@H]1NCCc2cc(OC)c(OC)cc21`, for which the “activity change, negative = inhibition” value is inactive: -3.01%.

`CC(C)(C)OC(=O)N(Cc1ccco1)S(=O)(=O)c1ccccc1Br`: the “activity change, negative = inhibition” value was inactive: -13.8%.

In the case of `N=C(N)N`, the “activity change, negative = inhibition” value is inactive: 30%.

Regarding `CCOC(=O)C[C@H]1c2ccccc2S(=O)(=O)N1Cc1cccc(C(F)(F)F)c1`, the “activity change, negative = inhibition” value is inactive: -12.2%.

`CCN(CC)CCOC(=O)C1(c2ccccc2)CCCC1`: the “activity change, negative = inhibition” value is inactive: 12.3%.

Regarding `C=CC(C)(O)CC/C=C(\C)CCC=C(C)C` (centres undefined), the “activity change, negative = inhibition” value is inactive: 9.08%.

As for `CN(CCc1ccc(Cl)c(Cl)c1)C[C@@H](O)COc1ccc(NS(C)(=O)=O)cc1`, the “activity change, negative = inhibition” value is inactive: -9.47%.

As for `C[C@H]1CCC(=O)N([C@H](CC#N)Cc2ccccc2)CC1`, the “activity change, negative = inhibition” value is inactive: 15.4%.

As to `COc1cc(OC)c2c(OC)c(-c3ccc4c(c3)OCO4)c(=O)oc2c1`, the “activity change, negative = inhibition” value was inactive: 7.54%.

Consider `CC(CSC(=O)c1ccccc1)C(=O)N1C[C@@H](Sc2ccccc2)C[C@H]1C(=O)O` (some centres undefined), for which the “activity change, negative = inhibition” value was inactive: 16.2%.

`CN1C(C(=O)Nc2ccccn2)=C(O)c2sccc2S1(=O)=O`: the activity change, negative = inhibition entry was “inactive”.

Take `Cc1ncc([N+](=O)[O-])n1CC(O)CCl` (centres undefined): the “activity change, negative = inhibition” value was inactive: 8.95% [at 75.8 µM].

In the case of `Cc1cc(C(=O)NCCc2ccc(S(=O)(=O)NC(=O)NN3CCCCCC3)cc2)no1`, the “activity change, negative = inhibition” value is inactive: 15.2%.

As for `O=c1c(CCc2ccccc2)nc2cncnc2n1Cc1ccccc1`, the “activity change, negative = inhibition” value is inactive: 7.3%.

For `COc1ccc(OC)c(-c2cc(Cl)c3c(c2)CC(CNC(=O)c2cnn4cccnc24)O3)c1` (centres undefined), the “activity change, negative = inhibition” value is inactive: 23.3%.

With `Cc1cn([C@H]2C[C@H](F)[C@@H](CO)O2)c(=O)[nH]c1=O`, the “activity change, negative = inhibition” value is inactive: 10.8%.

Regarding `Cc1nc2cnc(Oc3ccccc3)nc2n(CCc2ccccc2)c1=O`, the “activity change, negative = inhibition” value is inactive: 4.81%.

In the case of `Cc1noc(C)c1C(=O)N1CCC[C@@]2(CCN(Cc3ccccc3)C2)C1`, the “activity change, negative = inhibition” value was inactive: 13.4%.

As for `CS(=O)(=O)Nc1cccc(-c2nc(Nc3ccccc3)c3ccccc3n2)c1`, the “activity change, negative = inhibition” value was inactive: 0.303%.

For the compound `COC(=O)C1N[C@@H]([C@@H](NC(=O)COc2ccccc2)C(=O)NCc2ccsc2)SC1(C)C` (some centres undefined), the “activity change, negative = inhibition” value is inactive: 12.1%.

In the case of `N[C@@H](C(=O)N[C@H]1C(=O)N2C(C(=O)O)=C(Cl)CC[C@H]12)c1ccccc1`, the “activity change, negative = inhibition” value was inactive: 16.5%.

As to `Cc1cccc(C)c1NC(=O)C1CCCCN1C` (centres undefined), the “activity change, negative = inhibition” value is inactive: 6.5%.

In the case of `COc1ccc(C2C(=O)c3ccccc3C2=O)cc1`, the “activity change, negative = inhibition” value was inactive: 14.4%.

In the case of `COc1cc2nc(CC(O)c3nc4cc(OC)c(OC)cc4[nH]3)[nH]c2cc1OC` (centres undefined), the “activity change, negative = inhibition” value was inactive: 15.3%.

Regarding `C[C@@H](CN(C)C)CN1c2ccccc2Sc2ccccc21`, the “activity change, negative = inhibition” value was inactive: -0.415% [at 75.8 µM].

As for `CN(C)c1ccc2nc3ccc(=[N+](C)C)cc-3sc2c1`, the “activity change, negative = inhibition” value is inactive: -2.12%.

For `CN(C)c1ncnc2ccc(-c3ccc4c(c3)OCO4)cc12`, the “activity change, negative = inhibition” value is inactive: -20.3%.

As to `COc1cc(/C=C/C(=O)N2CCC=CC2=O)cc(OC)c1OC`, the “activity change, negative = inhibition” value is inactive: -6.83%.

As to `O=C(O)c1cc2cc(Cl)ccc2[nH]1`, the “activity change, negative = inhibition” value was inactive: 10.6%.

`COC(=O)C1CCN(Cc2ccc3c(c2)CN(C(=O)c2sc(C)nc2C)CCO3)CC1`: the “activity change, negative = inhibition” value is inactive: 10.8%.

Consider `COCC(=O)N1CCC2(CC1)CCN(c1ccccn1)CC2`, for which the “activity change, negative = inhibition” value is inactive: 13.6%.

As for `C[C@H]1CCC(=O)N([C@H](CN=[N+]=[N-])Cc2ccccc2)CC1`, the “activity change, negative = inhibition” value is inactive: 6.14%.

In the case of `COc1ccccc1CN1CC2(CCN(C(=O)c3cnccn3)CC2)C1`, the “activity change, negative = inhibition” value is inactive: 10.5%.

In the case of `O=C(CCCN1CCN(c2ccc(F)cc2)CC1)NC1c2ccccc2CSc2ccccc21` (centres undefined), the “activity change, negative = inhibition” value was inactive: 2.48%.

For the compound `Cc1cccc2cc(CN(C(=O)c3ccc(N4CCCCC4)cc3)C3CC3)c(N3CCC(O)CC3)nc12`, the “activity change, negative = inhibition” value was inactive: 9.57%.

In the case of `CC1(C)S[C@@H]2C(C(=O)O)NC(=O)N2C1C(=O)O` (some centres undefined), the “activity change, negative = inhibition” value is inactive: -1.92%.

Consider `Oc1cc2c(c(Cl)c1O)CCNC[C@H]2c1ccccc1`, for which the “activity change, negative = inhibition” value was inactive: -4.4%.

Consider `S=C1SCN(Cc2ccccc2)CN1Cc1ccccc1`, for which the “activity change, negative = inhibition” value was inactive: 17.3%.

Take `COc1c(O)c2c(=O)cc(OC)c3c4c(OC)cc(=O)c5c(O)c(OC)c(C[C@@H](C)OC(=O)c6ccccc6)c(c(c1C[C@@H](C)OC(=O)Oc1ccc(O)cc1)c23)c54`: the activity change, negative = inhibition is inactive: 10.9% [at 7.83 µM].

For the compound `Cn1cccc1C(=O)N1CCC2(CC1)CCN(c1ccccc1)CC2`, the “activity change, negative = inhibition” value is inactive: 17%.

On to `CC(=O)c1ccc(F)c(-c2cc(C)cc3c2OC(CNC(=O)c2cccnc2)C3)c1` (centres undefined), for which the “activity change, negative = inhibition” value was inactive: -4.39%.

For `N#Cc1cccc(-c2cncnc2NCCc2cnc[nH]2)c1`, the “activity change, negative = inhibition” value is inactive: -8.42%.

Take `COc1ccc2[nH]cc(CCNc3cc(-c4ccoc4)ncn3)c2c1`: the “activity change, negative = inhibition” value was inactive: -13.5%.

In the case of `CCN[C@@H]1C[C@H](N)[C@@H](OC2OC(CN)=CCC2N)[C@H](O)[C@H]1O[C@H]1OC[C@](C)(O)[C@H](NC)[C@H]1O` (some centres undefined), the “activity change, negative = inhibition” value is inactive: 5.37%.

On to `CCS(=O)(=O)Nc1cc(C(=O)N2C[C@@H](C)O[C@@H](C)C2)c2c(c1)nc(-c1ccccc1)n2C`, for which the “activity change, negative = inhibition” value was inactive: 8.62%.

With `Cc1cc(C2CCCCC2)n(O)c(=O)c1`, the activity change, negative = inhibition entry is “inactive”.

Consider `CC(=O)N1CCC2(CC1)CCN(C(=O)Nc1cccc(C#N)c1)CC2`, for which the “activity change, negative = inhibition” value is inactive: 16.1%.

In the case of `C[C@@]12CC[C@@H]3c4ccc(O)cc4C[C@H](CCCCCCCCCS(=O)CCCC(F)(F)C(F)(F)F)[C@H]3[C@@H]1CC[C@@H]2O` (some centres undefined), the “activity change, negative = inhibition” value is inactive: -5.29%.

Consider `O=C(c1ccnc(-n2cnnn2)c1)N1CCOc2ccc(C(O)CCc3ccccc3)cc2C1` (centres undefined), for which the “activity change, negative = inhibition” value is inactive: -4.03%.

With `CCC1(C2CCN(C(=O)c3cccc(F)c3F)CC2)NC(=O)N(CCc2scnc2C)C1=O` (centres undefined), the “activity change, negative = inhibition” value was inactive: 11.9%.

Regarding `CC1=C(C(=O)OC(C)C)C(c2cccc([N+](=O)[O-])c2)C(C(=O)OC2CN(C(c3ccccc3)c3ccccc3)C2)=C(N)N1` (centres undefined), the “activity change, negative = inhibition” value is inactive: -9.36%.

With `O=S(=O)(c1ccccc1)N1CCC2(CC1)CN(c1ccccc1)C2`, the “activity change, negative = inhibition” value is inactive: 5.63%.

`O=c1c(-c2ccc(F)cc2)nc2cnc(N3CCOCC3)nc2n1CCc1ccccc1`: the “activity change, negative = inhibition” value is inactive: 3.59%.

Take `Oc1ccc(/C=C/c2ccc(/C=C/c3ccc(O)cc3)c(Br)c2)cc1`: the “activity change, negative = inhibition” value is inactive: 23.9% [at 75.8 µM].
